In the antibiotic and cytotoxicity screens of Wong et al. (2023):
The other results are listed elsewhere or left out.

Assays:
HSkMC = human skeletal muscle cells; test: cytotoxicity call (relative viability < 0.9); conditions: 10 µM
HepG2 = test: cytotoxicity call (relative viability < 0.9); conditions: 10 µM
S. aureus RN4220 = test: growth inhibition call (relative growth <= 0.2); conditions: 50 µM

C[C@H]1CN([C@@H](C)CO)C(=O)Cc2cc(NC(=O)CCN3CCOCC3)ccc2O[C@H]1CN(C)S(C)(=O)=O
inactive: cytotoxicity call (HSkMC) | cytotoxicity call (HepG2) | growth inhibition call (S. aureus RN4220)

C[C@@H]1CCCCO[C@@H](CN(C)C(=O)CCC(F)(F)F)[C@@H](C)CN([C@@H](C)CO)C(=O)c2cc(NS(=O)(=O)c3cccs3)ccc2O1
inactive: cytotoxicity call (HSkMC) | cytotoxicity call (HepG2) | growth inhibition call (S. aureus RN4220)

C[C@@H]1CN([C@H](C)CO)C(=O)Cc2cc(NC(=O)CCCN(C)C)ccc2O[C@@H]1CN(C)S(=O)(=O)c1ccc(F)cc1
inactive: cytotoxicity call (HSkMC) | cytotoxicity call (HepG2) | growth inhibition call (S. aureus RN4220)

COc1ccc(S(=O)(=O)N(C)C[C@H]2OCCCC[C@H](C)Oc3ccc(NC(=O)Nc4ccc5c(c4)OCO5)cc3C(=O)N([C@@H](C)CO)C[C@@H]2C)cc1
inactive: cytotoxicity call (HSkMC) | cytotoxicity call (HepG2) | growth inhibition call (S. aureus RN4220)

O=C(N[C@H](c1ccc(F)cc1)c1ccc2ccccc2n1)C1CCN(CCOc2ccc(Cl)cc2Cl)CC1
inactive: cytotoxicity call (HSkMC) | cytotoxicity call (HepG2) | growth inhibition call (S. aureus RN4220)

COc1ccc(CN(C)C[C@@H]2Oc3c(NS(C)(=O)=O)cccc3C(=O)N([C@@H](C)CO)C[C@@H]2C)cc1
inactive: cytotoxicity call (HSkMC) | cytotoxicity call (HepG2) | growth inhibition call (S. aureus RN4220)

Cc1ncc(CO)c(CN)c1O
inactive: cytotoxicity call (HSkMC) | cytotoxicity call (HepG2) | growth inhibition call (S. aureus RN4220)

C[C@@H]1CN([C@H](C)CO)C(=O)Cc2cc(NC(=O)CCN3CCOCC3)ccc2O[C@H]1CN(C)Cc1ccc(C(=O)O)cc1
inactive: cytotoxicity call (HSkMC) | cytotoxicity call (HepG2) | growth inhibition call (S. aureus RN4220)

CO[C@@H]1CN(C)C(=O)c2ccc(NS(=O)(=O)c3cn(C)cn3)cc2OC[C@H](C)N(CC2CC2)C[C@H]1C
inactive: cytotoxicity call (HSkMC) | cytotoxicity call (HepG2) | growth inhibition call (S. aureus RN4220)
